For this experiment, the target named is Nonstructural protein 3 (Zika virus) (UniProt A0A024AXB9).
Setting [1] is: PRVABC59, Concentration 15.0 uM, Number of replicates 1.0.
Where [2] appears, read: PRVABC59, Concentration 50.0 uM, Number of replicates 1.0.

Broadly, the inhibition is the drop in the measured response relative to a control, in per cent.

Hit rate of the full screen: of about 2,700 compounds, about 160 (5.9%) showed an effect of 50% or more. The list shows a part of the results.

Chain of UniProt A0A024AXB9 (A0A024AXB9 as listed by the source): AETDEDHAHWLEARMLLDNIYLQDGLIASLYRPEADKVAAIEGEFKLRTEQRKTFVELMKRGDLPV

With `O=C(Nc1cc(F)c(Br)c(F)c1)c1cc(Cl)ccc1NS(=O)(=O)c1ccc(Oc2ccccc2Cl)cc1`, the inhibition under setting [1] was determined as 23.4%.
`Cc1cc(CO)c2cccc(Nc3nonc3C(N)=O)c2n1`: the inhibition (PRVABC59, Concentration 49.95 uM, Number of replicates 2.0, Standard deviation 1.4175935710362748 %) came out at 4.15% and the inhibition (PRVABC59, Concentration 99.9 uM, Number of replicates 2.0, Standard deviation 2.0633301575187155 %) worked out at 4.07%.
Take `Cc1cc(Br)cc(C)c1NC(=O)C1CCN(c2ccc(C=O)cc2)CC1`: the inhibition under setting [2] is 20.8%.
With `O=C(NCc1ccc(S(F)(F)(F)(F)F)cc1)c1cc(Cl)ccc1NS(=O)(=O)c1ccc(Oc2ccccc2Cl)cc1`, the inhibition under setting [1] came to 27.7%.
As for `O=Cc1ccc(N2CCC(C(=O)Nc3ncc(C(F)(F)F)cc3Cl)CC2)cc1`, the inhibition under setting [2] was 20.3%.
As to `Cc1cc(CO)c2cccc(Cc3cccc(C(=O)N4CC[C@@H](CO)C4)c3)c2n1`, the inhibition is, setting by setting: (PRVABC59, Concentration 49.95 uM, Number of replicates 2.0, Standard deviation 1.594011680945781 %) -6.14%; (PRVABC59, Concentration 99.9 uM, Number of replicates 2.0, Standard deviation 1.5520642713220405 %) 3.44%.
For the compound `O=Cc1ccc(N2CCC(C(=O)Nc3ncccc3C(F)(F)F)CC2)cc1`, the inhibition under setting [2] worked out at 22%.
Take `COc1cc(CS(=O)(=O)Cc2c(F)cccc2Cl)nc(N2CCNCC2)n1`: the inhibition runs as follows: (PRVABC59, Concentration 50.0 uM, Number of replicates 2.0, Standard deviation 0.7895335993586137 %) -0.455%; (PRVABC59, Concentration 100.0 uM, Number of replicates 2.0, Standard deviation 1.3970643047419518 %) 1.93%; (PRVABC59, Concentration 200.0 uM, Number of replicates 2.0, Standard deviation 1.0663830394580245 %) 7.23%.
Turning to `COc1cc(NC(=O)C2CCN(c3ccc(C=O)cc3)CC2)nc(OC)n1`, under setting [2], the inhibition was found to be 18.8%.
Turning to `Cc1cc(CO)c2cccc(C[C@H](NC(=O)c3cccc(Cn4cncn4)c3)C(=O)O)c2n1`, the inhibition is, setting by setting: (PRVABC59, Concentration 49.95 uM, Number of replicates 2.0, Standard deviation 0.9032659691763744 %) -5.49%; (PRVABC59, Concentration 99.9 uM, Number of replicates 2.0, Standard deviation 1.6710421272699896 %) -4.41%.
As for `CN1CCN(c2ccc(CNCc3cccc(S(N)(=O)=O)c3)cc2)CC1`, the inhibition was -8.74% (PRVABC59, Concentration 49.5 uM, Number of replicates 2.0, Standard deviation 1.5154223069888513 %); -6.5% (PRVABC59, Concentration 99.01 uM, Number of replicates 2.0, Standard deviation 2.659720370827631 %); -4.79% (PRVABC59, Concentration 198.0 uM, Number of replicates 2.0, Standard deviation 3.3033882213977632 %).
With `CN(C)Cc1cccc(CNC(=O)c2cc(Cl)ccc2NS(=O)(=O)c2ccc(Oc3ccccc3Cl)cc2)c1`, the inhibition under setting [1] is -1.32%.
`Cc1cc(CO)c2cccc(C[C@H](NC(=O)c3nc(-c4ccccc4)oc3C(F)(F)F)C(=O)O)c2n1`: the inhibition was -1.46% (PRVABC59, Concentration 49.95 uM, Number of replicates 2.0, Standard deviation 1.6710421904902624 %) and 3.44% (PRVABC59, Concentration 99.9 uM, Number of replicates 2.0, Standard deviation 1.5907517065071604 %).
With `Cc1ccc(S(N)(=O)=O)c(NCc2ccc(N3CCN(C)CC3)cc2)c1`, the inhibition was -3.3% (PRVABC59, Concentration 49.5 uM, Number of replicates 2.0, Standard deviation 3.8136834235263835 %); -1.82% (PRVABC59, Concentration 99.01 uM, Number of replicates 2.0, Standard deviation 3.4522242113831334 %); 2.12% (PRVABC59, Concentration 198.0 uM, Number of replicates 2.0, Standard deviation 2.9941184474851785 %).
Take `CN(CCO[Si](C)(C)C(C)(C)C)C(=O)C1CCN(c2ccc(C=O)cc2)CC1`: the inhibition under setting [2] was 22.6%.
As to `COc1ccc(Cl)c(NC(=O)C2CCN(c3ccc(C=O)cc3)CC2)c1`, the inhibition under setting [2] was found to be 23.1%.
Turning to `O=C(Nc1cccc(B(O)O)c1)[C@H]1CCn2ccnc2C1`, the inhibition reads like this: (PRVABC59, Concentration 49.5 uM, Number of replicates 2.0, Standard deviation 2.866092203826981 %) 1.78%; (PRVABC59, Concentration 99.01 uM, Number of replicates 2.0, Standard deviation 0.5770227248937957 %) 4.86%; (PRVABC59, Concentration 198.0 uM, Number of replicates 2.0, Standard deviation 6.947525620811191 %) 1.81%.
In the case of `COc1cc(F)c(CNC(=O)c2cc(Cl)ccc2NS(=O)(=O)c2ccc(Oc3ccccc3Cl)cc2)c(F)c1`, the inhibition under setting [1] worked out at 28.3%.
As for `CC(C)(NC(=O)C1CCN(c2ccc(C=O)cc2)CC1)c1ccc(Cl)cc1`, the inhibition (PRVABC59, Concentration 10.0 uM, Number of replicates 1.0) was determined as 26.8%.
Regarding `COc1cc(-c2ccccc2C(=O)Nc2cnn(C)c2)ccn1`, the inhibition (PRVABC59, Concentration 49.5 uM, Number of replicates 2.0, Standard deviation 2.0867366627203316 %) is -1.92%; the inhibition (PRVABC59, Concentration 99.01 uM, Number of replicates 2.0, Standard deviation 1.9341815083818144 %) is -2.85%; the inhibition (PRVABC59, Concentration 198.0 uM, Number of replicates 2.0, Standard deviation 1.1019385844771483 %) was -1.54%.
For `COc1cccc(CCNC(=O)c2cc(Cl)ccc2NS(=O)(=O)c2ccc(Oc3ccccc3Cl)cc2)c1OC`, the inhibition under setting [1] was 11.2%.
For the compound `Cc1cc(CO)c2cccc(Cc3ccccc3NC(=O)c3nc(C4CCNCC4)oc3C)c2n1`, the inhibition runs as follows: (PRVABC59, Concentration 49.95 uM, Number of replicates 2.0, Standard deviation 3.130141914719793 %) 12.3%; (PRVABC59, Concentration 99.9 uM, Number of replicates 2.0, Standard deviation 0.6412983547468495 %) 60.8%.
With `CNC(=O)C1(C(=O)Nc2ccncc2C)CC1`, the inhibition was -4.23% (PRVABC59, Concentration 49.5 uM, Number of replicates 2.0, Standard deviation 2.398978218165409 %); -4.66% (PRVABC59, Concentration 99.01 uM, Number of replicates 2.0, Standard deviation 2.773092021574055 %); -4.14% (PRVABC59, Concentration 198.0 uM, Number of replicates 2.0, Standard deviation 2.940069406004515 %).
On to `CN1[C@@H]2CCC[C@H]1C[C@@H](NC(=O)c1cc(Cl)ccc1NS(=O)(=O)c1ccc(Oc3ccccc3Cl)cc1)C2`, for which, under setting [1], the inhibition was 1.62%.
For the compound `O=Cc1ccc(N2CCC(C(=O)Nc3nc(-c4ccc(Cl)c(Cl)c4)cs3)CC2)cc1`, under setting [2], the inhibition is 24.5%.
For the compound `O=C(c1cc(Cl)ccc1NS(=O)(=O)c1ccc(Oc2ccccc2Cl)cc1)N1CCC[C@H](C(F)(F)F)C1`, under setting [1], the inhibition is 20.5%.
Consider `O=Cc1ccc(N2CCC(C(=O)N3CCc4c([nH]c5ccccc45)C3)CC2)cc1`, for which, under setting [2], the inhibition is 3.67%.
`Cc1ncc(-c2ccccc2C(=O)Nc2cnn(C)c2)cn1`: the inhibition (PRVABC59, Concentration 49.5 uM, Number of replicates 2.0, Standard deviation 6.167999932877102 %) was -0.573%; the inhibition (PRVABC59, Concentration 99.01 uM, Number of replicates 2.0, Standard deviation 6.088749527748128 %) is -0.405%; the inhibition (PRVABC59, Concentration 198.0 uM, Number of replicates 2.0, Standard deviation 6.674429131032364 %) amounted to 3.47%.
For `Cc1n[nH]c(CC(=O)N2CCC[C@H](n3cnc(C(N)=O)n3)C2)n1`, the inhibition reads like this: (PRVABC59, Concentration 49.5 uM, Number of replicates 2.0, Standard deviation 0.6580629802384823 %) -1.42%; (PRVABC59, Concentration 99.01 uM, Number of replicates 2.0, Standard deviation 1.5259805983030124 %) -2.76%; (PRVABC59, Concentration 198.0 uM, Number of replicates 2.0, Standard deviation 3.235908082358729 %) -3.44%.
As for `O=Cc1ccc(N2CCC(C(=O)Nc3ccc(C(F)(F)F)cn3)CC2)cc1`, under setting [2], the inhibition was 26.5%.
Consider `NCc1cccc(NC(=O)[C@@H](CO)NC(=O)OCc2ccccc2)c1`, for which the inhibition runs as follows: (PRVABC59, Concentration 49.5 uM, Number of replicates 2.0, Standard deviation 2.4696309190792523 %) 0.466%; (PRVABC59, Concentration 99.01 uM, Number of replicates 2.0, Standard deviation 4.203279186849219 %) 2.84%; (PRVABC59, Concentration 198.0 uM, Number of replicates 2.0, Standard deviation 4.3159482180208295 %) 5.56%.
On to `Cc1c(C(=O)NCc2ccccn2)cc(C2CC2)n1C`, for which the inhibition (PRVABC59, Concentration 49.5 uM, Number of replicates 2.0, Standard deviation 4.03936652104494 %) was determined as 1.17%; the inhibition (PRVABC59, Concentration 99.01 uM, Number of replicates 2.0, Standard deviation 2.7270077301815765 %) worked out at 0.686%; the inhibition (PRVABC59, Concentration 198.0 uM, Number of replicates 2.0, Standard deviation 2.0980329453519184 %) is -2.6%.
On to `C[C@H](NC(=O)c1cc(Cl)ccc1NS(=O)(=O)c1ccc(Oc2ccccc2Cl)cc1)c1ccc(S(C)(=O)=O)cc1`, for which the inhibition under setting [1] came out at 31.5%.
Same read-out and setting: under `O=C(c1cc(Cl)ccc1NS(=O)(=O)c1ccc(Oc2ccccc2Cl)cc1)N1CCC(C(F)(F)F)CC1` stands 17.2%.
`Cc1cc(CO)c2cccc(Nc3n[nH]c4ccc(C#N)cc34)c2n1`: the inhibition (PRVABC59, Concentration 49.95 uM, Number of replicates 2.0, Standard deviation 0.8071707331030509 %) is -1.25% and the inhibition (PRVABC59, Concentration 99.9 uM, Number of replicates 2.0, Standard deviation 1.6244310845648215 %) amounted to 0.767%.
On to `O=C(NCc1cc(-c2ccc(Cl)cc2)on1)c1cc(Cl)ccc1NS(=O)(=O)c1ccc(Oc2ccccc2Cl)cc1`, for which the inhibition under setting [1] is 37.7%.
Turning to `CSc1cccc(CN(C)C(=O)C2CCN(c3ccc(C=O)cc3)CC2)c1`, the inhibition under setting [2] amounted to 20.7%.
For the compound `O=Cc1ccc(N2CCC(C(=O)Nc3cccc(I)c3)CC2)cc1`, under setting [2], the inhibition was determined as 23.2%.
Consider `O=C1NCC[C@@H]1CNS(=O)(=O)c1ccc(Oc2ccccc2Cl)cc1`, for which the inhibition (PRVABC59, Concentration 49.5 uM, Number of replicates 2.0, Standard deviation 1.553523437364336 %) was -1.48%; the inhibition (PRVABC59, Concentration 99.01 uM, Number of replicates 2.0, Standard deviation 2.384182988464145 %) is 5.62%; the inhibition (PRVABC59, Concentration 198.0 uM, Number of replicates 2.0, Standard deviation 1.5662052133470215 %) stood at 10.8%.
In the case of `COc1cccc(C(=O)N2CCN(C(=O)C3CCN(c4ccc(C=O)cc4)CC3)CC2)c1`, under setting [2], the inhibition came to 25.5%.
As for `C=CCN(C(=O)c1cc(Cl)ccc1NS(=O)(=O)c1ccc(Oc2ccccc2Cl)cc1)[C@H]1CCS(=O)(=O)C1`, under setting [1], the inhibition was found to be 19.4%.
Consider `Cc1cc(CO)c2cccc(NCC3CCOCC3)c2n1`, for which the inhibition (PRVABC59, Concentration 49.95 uM, Number of replicates 2.0, Standard deviation 1.1048152333285624 %) is -5.47%.
As for `Cc1cc(CO)c2cccc(N3CCC(C(=O)O)CC3)c2n1`, the inhibition was -0.444% (PRVABC59, Concentration 49.95 uM, Number of replicates 2.0, Standard deviation 3.6180823862513867 %) and 6.38% (PRVABC59, Concentration 99.9 uM, Number of replicates 2.0, Standard deviation 3.3671751163954844 %).

(Values after ChEMBL document CHEMBL5606458, “ASAP - ZIKV NS2B-NS3 protease fluorescence single point” (2024).)
